Data: PubChem BioAssay AID1345083 (National Center for Advancing Translational Sciences (NCATS), 2018)
Hit rate of the full screen: of about 94,000 compounds, about 6,200 (6.6%) were called active. Inconclusive means that the source gave no clear call. Such entries were picked first, then a sample of the others. The call rests on the fitted dose curve; in most records, active means well fitted inhibition curve with a large enough effect; inconclusive means small, poorly fitted or top-dose-only effect; inactive means flat fitted curve, though single readings scatter. Potencies beside an inconclusive call are fits to weak or partial responses and may not hold up.

Experiment: Cytotoxic Profiling in HEK 293 Cell Line of Diverse Libraries Using Quantitative High-Throughput Screening; further: nearly all actives have a fitted effect of over 60% in size
Settings: HEK 293 viability, ATP luminescence (CellTiter-Glo), 48-72 h; activity change, negative = cytotoxicity: at 115 µM (top of the series) unless noted; series mostly up to 115 µM
Outline: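 Viability of HEK 293 cells, plated at 250 cells/well, was judged by cellular ATP after compound treatment for 48 or 72 hr. Luminescence was imaged 10 min after CellTiter-Glo addition at room temperature.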
On the % scale 0 is the no-effect control and ±100 the full control effect; potency means the concentration at half of the fitted maximal effect; tags describe the fitted curve by direction and shape.

| Structure (SMILES) | activity change, negative = cytotoxicity | Potency | outcome |
| --- | --- | --- | --- |
| COc1ccc(OCc2cc(C(=O)N(C)CC(O)CO)n[nH]2)c(Cl)c1 (centres undefined) | inactive: 0.511% | – | – |
| CC(=O)N1CCC2(CC1)CC(N(C(=O)NC(C)C)C1CC1)CCO2 (centres undefined) | inactive: -4.37% | – | – |
| Cc1cccc(-c2cccc(CN3CCC(NC(=O)NC(C)C)CC3)c2)c1 | – | inconclusive: 79.4 µM [inhibitor, partial curve, poor fit] | – |
| CCCCCC(=O)Nc1nc2c(s1)C[C@@H]1[C@](C)(CO)[C@H](O)CC[C@@]1(C)[C@@H]2CC(=O)N(C)Cc1ccccc1 | – | active: 28.2 µM | – |
| CN(C)C(=O)c1cc2c(s1)CCC(C(=O)Nc1ccc(F)c(Cl)c1)C2 (centres undefined) | – | inconclusive: 50.1 µM [inhibitor, partial curve, poor fit] | – |
| Cc1ccc(C(=O)N(CC(C)C)CC2CN(C(=O)c3ccc4c(c3)OCO4)CCO2)cc1 (centres undefined) | – | inconclusive: 56.2 µM [inhibitor, partial curve, poor fit] | – |
| Cc1c(F)cccc1CN1CCC2(CC1)CC(c1ccccc1)C(=O)N2C (centres undefined) | – | inconclusive: 35.5 µM [inhibitor, full curve, poor fit] | – |
| COC(=O)C1=C(C)N=C2SC=C(CC(=O)NCc3cccc(F)c3)N2C1c1ccccc1Cl (centres undefined) | inactive: -28.3% | – | – |
| Cc1cc(CN2CCc3nc(C(C)C)nc(-c4ccc(Cl)cc4)c3CC2)no1 | – | inconclusive: 79.4 µM [inhibitor, partial curve, poor fit] | – |
| CN(C)S(=O)(=O)N1C[C@@H]2CC[C@H](C1)N(C(=O)CCn1cnnn1)C2 | inactive: -18.4% | – | – |
| Cc1oc(C(O)c2ccccc2F)nc1C(=O)N1CCN(c2ccccn2)CC1 (centres undefined) | – | inconclusive: 100 µM [inhibitor, partial curve] | – |
| COc1cccc(Nc2ccnc(-c3nnc(C)n3C3CCCCC3)c2)c1 | – | active: 70.8 µM | – |
| COc1ccc(C(=O)N2CCCN(C)c3ccccc32)c(C)c1 | – | active: 44.7 µM | – |
| Cc1nc2c(c(-c3ccc(Cl)cc3)n1)CCN(C(=O)c1ccc(C(F)(F)F)cc1)CC2 | – | inconclusive: 44.7 µM [inhibitor, partial curve, poor fit] | – |
| c1ccc(-c2ccc3ncc(Nc4ccc5c(c4)OCCO5)n3n2)cc1 | – | active: 89.1 µM | – |
| O=C(c1cccnc1)N1CCCCC1c1noc(COc2ccc(F)cc2)n1 (centres undefined) | – | inconclusive: 89.1 µM [inhibitor, single point] | – |
| CCCCNC(=O)c1ccc2c(c1)n(Cc1ccc(F)cc1)c(=O)c1ccnn12 | – | inconclusive: 25.1 µM [inhibitor, full curve] | – |
| COc1ccc(NC(=O)c2nc3sccn3c2-c2ccc(C)cc2)cc1 | inactive: -30.4% | – | – |
| C#CCN[C@@H]1C[C@@H]2c3[nH]c4ccccc4c3C[C@@H](C(=O)OC)N2[C@H](c2ccc(F)cc2)C1 | – | active: 31.6 µM | – |
| Cn1c(=O)cc(C(=O)NC2CCCc3c2[nH]c2ccccc32)c2ccccc21 (centres undefined) | – | inconclusive: 50.1 µM [inhibitor, partial curve, poor fit] | – |
| O=[S+]([O-])(c1cccs1)N1CCCN(c2nc3ncccc3o2)CC1 | inactive: -11% | – | – |
| CN(C)Cc1cccc(-c2cc3c(ccn3Cc3ccncc3)c(N3CCOCC3)n2)c1 | – | active: 89.1 µM | – |
| CS(=O)(=O)N1CCC(C2CCN(C(=O)NCCc3ccccc3)C2)CC1 (centres undefined) | inactive: -0.347% | – | – |

| Structure (SMILES) | activity change, negative = cytotoxicity | Potency | outcome |
| --- | --- | --- | --- |
| C=CCN1CC2(CCC1=O)CCN(C(=O)[C@@H](O)c1ccccc1)CC2 | inactive: -10.5% | – | – |
| CNC(=O)[C@@H]1CN(Cc2cccc(OC)c2)C[C@H]1CO | inactive: -2.57% | – | – |
| Cc1c(CC(=O)NC2CC2)c2c(n1Cc1ccc(F)cc1)CCCC2=O | – | inconclusive: 17.8 µM [inhibitor, full curve] | – |
| CCOc1cc(C)c(CN2C[C@@H](CN(C)C)C[C@H](CO)C2)cc1C(C)C | – | active: 35.5 µM | – |
| Cc1nn2c(c1-c1ccccc1C(C)C)N(C(=O)c1cccc(C#N)c1)CCC2 | – | inconclusive: 44.7 µM [inhibitor, partial curve, poor fit] | – |
| Cc1noc(-c2ccc(N3CCC(O)(c4cccnc4)CC3)nc2)n1 | – | inconclusive: 44.7 µM [inhibitor, partial curve, poor fit] | – |
| O=C(Nc1ccccc1F)N1CC2CCC(C1)N2Cc1ccccc1 | inactive: -6.09% | – | – |
| O=C([C@H]1C[C@H](Oc2ccccc2)CN1C(=O)CC1CCCC1)N1CCOCC1 | inactive: -23.3% | – | – |
| O=C(CCc1ccccc1)N1CCC2(CC1)N=C(c1cccc(Br)c1)NO2 | – | inconclusive: 89.1 µM [inhibitor, single point] | – |
| CC(C)(C)C(=O)NCC1CCN(Cc2nc(-c3ccccc3)no2)C1 (centres undefined) | inactive: -8.41% | – | – |
| CCNC(=O)c1cc2c(=O)[nH]c(-c3ccccc3)cn2n1 | – | inconclusive: 5.01 µM [inhibitor, full curve, poor fit] | – |
| Cn1cc(CN2C[C@@H](F)[C@@H](OCc3nc4ccc(C#N)cc4[nH]3)C2)c2ccccc21 | – | active: 89.1 µM | – |
| COc1cccc(C(=O)N2CCCN(c3nc4ncccc4o3)CC2)c1 | – | inconclusive: 126 µM [inhibitor, single point] | – |
| CCOCCNc1ncnc2c1CN(c1cccc(C)c1)C(=O)CN2C | inactive: -20.8% | – | – |
| COc1ccc(OC)c(CN2CCC3(CC2)OCCN(Cc2ccccc2)C3=O)c1 | – | inconclusive: 89.1 µM [inhibitor, partial curve] | – |
| COc1ccccc1NC(=O)Cn1c(=O)n(-c2cccc(C)c2)c(=O)c2c1cc(C)n2C | – | inconclusive: 100 µM [inhibitor, single point] | – |
| C[S+](=O)([O-])N1CCN(c2ccc(C=O)cc2)C(=O)C1 | inactive: -13.7% [at 172 µM] | – | – |
| Cn1nc(-c2cccc(F)c2)c(N2CCCCC2)c1NC(=O)NCc1ccccc1 | – | active: 28.2 µM | – |
| O=C(Cn1nc2n(c1=O)CCCCC2)Nc1ccc(Cl)cc1 | inactive: -1.63% | – | – |
| Cc1cc(C(=O)N2CCC(OCC3CC3)C2)n(C)n1 (centres undefined) | inactive: -3.78% | – | – |
| Cc1n[nH]c(C)c1C(N)C(=O)NCc1ccccc1-n1ccnc1C (centres undefined) | – | inconclusive: 10 µM [inhibitor, partial curve, poor fit] | – |
| COc1ccccc1Cn1c(=O)c(C(=O)NCCc2ccc(F)cc2)nc2cccnc21 | – | inconclusive: 50.1 µM [inhibitor, partial curve, poor fit] | – |
| COc1cc(-c2nc(-c3c(C)noc3C)cc3cc(CN(C)C)oc23)ccn1 | – | active: 79.4 µM | – |

| Structure (SMILES) | activity change, negative = cytotoxicity | Potency | outcome |
| --- | --- | --- | --- |
| Cc1noc(C)c1COc1ccc(C(=O)N[C@@H]2CN(C(=O)Nc3cccc(C(F)(F)F)c3)CCC[C@H]2O)cc1 | – | inconclusive: 50.1 µM [inhibitor, partial curve, poor fit] | – |
| Cc1ccc(C(=O)N2C[C@H](c3nc(-c4ccccc4)no3)[C@@H](C)C2)cn1 | – | inconclusive: 50.1 µM [inhibitor, partial curve, poor fit] | – |
| COc1ccc(NC(=O)Cn2c(=O)n(-c3cccc(C)c3)c(=O)c3c2cc(C)n3C)cc1OC | – | inconclusive: 56.2 µM [inhibitor, partial curve, poor fit] | – |
| CCc1ocnc1C(=O)NC1CC(c2cc(N3CCC(O)C3)ncn2)C1 (centres undefined) | – | – | inactive |
| COC1=C(C(=O)N(C)Cc2ccccc2)N(c2c(C)cccc2C)S(=O)(=O)c2ccccc21 | – | inconclusive: 44.7 µM [inhibitor, partial curve] | – |
| CN1CC2(CCN(Cc3cccs3)CC2)CC(c2ccccc2)C1=O (centres undefined) | – | inconclusive: 100 µM [inhibitor, single point] | – |
| CCc1cccc(OCC(=O)c2ccc3c(c2)N(CC(=O)N(C)Cc2ccccc2)C(=O)CO3)c1 | – | inconclusive: 15.8 µM [inhibitor, full curve, poor fit] | – |
| Cc1cc(C)c(CNC(=O)c2cc(-c3ccccc3)cc3c2OCCN3C)c(=O)[nH]1 | – | inconclusive: 100 µM [inhibitor, partial curve, poor fit] | – |
| COC(=O)CNC(=O)C1CCCN1c1nccc(Nc2ccc(C)cc2)n1 (centres undefined) | – | inconclusive: 50.1 µM [inhibitor, partial curve, poor fit] | – |
| O=C(c1ccccc1)N1CCn2c(nn(-c3ccc(Cl)cc3)c2=O)C1 | inactive: -18.4% | – | – |
| CCCCN1C(=O)C(CC(=O)N2CCCCC2)Sc2ncccc21 (centres undefined) | inactive: -19.9% | – | – |
| CCn1cc(-c2nc3cc(S(=O)(=O)N4CCCC4)ccc3n2C)c(C)n1 | inactive: -33.8% | – | – |
| CCn1nccc1C(=O)NC1CCN(c2cc(-c3ccccc3)[nH]n2)CC1 | – | inconclusive: 89.1 µM [inhibitor, single point] | – |
| O=C([C@@H]1C[C@H](Oc2ccccc2)CN1C(=O)c1ccsc1)N1CCOCC1 | inactive: -0.0537% | – | – |
| COc1cccc(-c2cn3cc(C(=O)N4CCCCC4)nc3s2)c1 | – | inconclusive: 44.7 µM [inhibitor, partial curve, poor fit] | – |
| CN1CCCN(C(=O)c2ccco2)c2ccccc21 | inactive: -24% | – | – |
| Cc1ccsc1C(=O)NC1CCN(c2cnn(Cc3ccccc3)c(=O)c2)CC1 | – | inconclusive: 44.7 µM [inhibitor, partial curve, poor fit] | – |
| COc1coc(C(=O)N2CCCC(c3ccccc3)(c3ccccc3)C2)cc1=O | – | inconclusive: 79.4 µM [inhibitor, partial curve, poor fit] | – |
| O=C(C1CCCCN1Cc1ccc(-c2cccs2)cc1)N1CCN(Cc2ccccc2)CC1 (centres undefined) | – | inconclusive: 14.1 µM [inhibitor, full curve, poor fit] | – |
| Cc1noc(C)c1[S+](=O)([O-])N1CCn2c(nnc2C2CCCNC2)C1 (centres undefined) | inactive: -2.98% | – | – |
| Cc1noc(C)c1-c1cc2cc(C(C)C)oc2c(N2CCN(C)CC2)n1 | – | inconclusive: 12.6 µM [inhibitor, full curve, poor fit] | – |
| O=C(NCCc1ccccc1F)c1ccc2nccn2c1 | inactive: -4.26% [at 172 µM] | – | – |
| CCOC(=O)NC1CCN(c2ccc3nnc(C4CC4)n3n2)CC1 | – | – | inactive |
